Measurements from patent US10316079B2, “Monoclonal antibody against muramyl peptides” (priority 2012, dated 2019).

Legend:
[1] = ELISA binding curve of 2E7 on MDP-OVA coated wells (Kd determination)
Experimental: After washes to remove unbound Abs, an anti-mouse-IgG Ab coupled with horseradish peroxidase (HSP) was added. After incubation, unbound secondary Ab was removed by washes and a chromogenic substrate of HSP was added. After reaction, the color intensity in each well was measured using a microtiter plate reader at 492 nm. […] Coefficient data: a=2.8768241, b=2.8055033, c=212.44541, and d=0.8659833. Y50=1.45, X=0.00131 μg/ml.
A mAb (2E7) was obtained from immunization of mice with N-acetylmuramyl-L-alanyl-D-isoglutamine. […] An IgG1 mAb that specifically recognizes the glutaraldehyde linker used to couple MDP to HSA was also obtained in the screening of hybridoma clones.

[2] = system: live Staphylococcus aureus; test: Aggregation of live bacterial cells incubated with 2E7; type: cell-based; conditions: data not shown
Experimental: (§1) Both Staphylococcus aureus and Escherichia coli cells were first incubated with 2E7 and then with an anti-mouse IgG Ab conjugated with FITC.

live Escherichia coli = test: as above; type: cell-based; conditions: data not shown
Experimental: as §1

Escherichia coli cells = test: Fluorescence microscopy of cells incubated with 2E7 and FITC anti-mouse IgG; type: cell-based; conditions: 2E7 then FITC anti-mouse IgG Ab
Experimental: (§2) Power Fit equation y=a*(x−b)^c using CurveExpert Basic. The standard curve was used to determine the peptidoglycan to concentration in a sample. […] Both bacteria were grown to OD600=1.5. Each culture was divided into two, and one treated with 40 μg/ml amoxicillin (Atex) and the other untreated. Aliquots were collected at the indicated times and the amount of MPs in the supernatant was determined by competitive ELISA. […] After removing unbound antibodies by PBS washes, the cells were incubated with a FITC-labeled anti-mouse IgG Ab before fluorescence microscopic examination.
as §1

[3] = system: Staphylococcus aureus cells; test: as above; type: cell-based; conditions: 2E7 then FITC anti-mouse IgG Ab
Experimental: as §2, §1

B1: 2E7: mouse monoclonal IgG1 against muramyl dipeptides; heavy chain SEQ ID NO: 3, light chain SEQ ID NO: 4; hybridoma Wy-Hyb-2E7, ATCC PTA-13256 (antibody)
heavy: MLVESGGGLVQPGGSMKLSCIVSGFTFSYYWMSWVRQSPEKGFEWVAEIRLKSENYATNYTESVKGKFTISRDDSKSRLYLQMNSLGAEDTGIYYCLTGYAWFAYWGQGTLVTVSAAKTTPPSVYPLAPGSAAQTNSMVTLGCLVKGYFPEPVTVTWNSGSLSSGVHTFPAVLQSDLYTLSSSVTVPSSTWPSETVTCNVAHPASSTK
light: DVQMIQSPKRLIYLVSKLDSGVPDRFTGSGSGTDFTLKISRVEAEDLGVYYCVQHTHFPTFGGGTKLEIKRADAAPTVSIFPPSSEQLTSGGASVVCFLNNFYPKDINVKWKIDGSERQNGVLNSWTDQDSKDSTYSMSSTLTLTKDEYERHNSYTCEATHKTSTSPIVKSFNRNEC
modifications: Heavy chain; Light chain
notes: mouse monoclonal IgG1 against muramyl dipeptides; hybridoma Wy-Hyb-2E7, ATCC PTA-13256
For B1, the “affinity of 2E7 to MPs (in words)” value [1] was “picomolar affinity”, the “2E7 concentration X at Y50=1.45 of the binding curve” value ([1]; MDP-OVA coated wells, OD492, Weibull model fit) was 0.00131 µg/mL and the Kd ([1]; read-out: Kd of 2E7 for N-acetylmuramyl-L-alanyl-D-isoglutamine, MDP-OVA coated 96-well plate, Weibull model fit of OD492, IgG MW=150) was 8.7 pM. The cell aggregation [2] was “significant cell aggregation”, the cell aggregation (live Escherichia coli) was “significant cell aggregation” and the staining of cells (Escherichia coli cells) was “weak staining”. The staining of cells [3] was “strong staining”.
